# Experimental data from the supplement of paper PMC8728848.
# The list shows a part of the results.
# What was measured:
# Assay in all cases: glycan array binding signal (z-score within array); higher = stronger binding
# Conditions in all cases: glycan notation: IUPAC condensed, linker removed
# Gal(b1-4)Glc = target: Gal(b1-4)Glc
# How it was run: (§1)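 The binding signal is a Z-score computed within each array. Data were drawn from 3228 arrays in the Consortium for Functional Glycomics database, restricted to those with a known protein sequence. Scores were averaged over arrays of the same protein sequence at different concentrations or buffers, and over linkers, and negative values can be taken as non-binding.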
# Gal(b1-4)Glc6S = target: Gal(b1-4)Glc6S
# How it was run: as §1
# Gal(b1-4)GlcNAc = target: Gal(b1-4)GlcNAc
# How it was run: as §1
# [1] = target: Gal(b1-4)GlcNAc(a1-6)Gal(b1-4)GlcNAc
# How it was run: as §1
# Gal(b1-4)GlcNAc(b1-2)Man = target: Gal(b1-4)GlcNAc(b1-2)Man
# How it was run: as §1
# [2] = target: Gal(b1-4)GlcNAc(b1-2)Man(a1-3)Man(b1-4)GlcNAc(b1-4)GlcNAc
# How it was run: as §1
# [3] = target: Gal(b1-4)GlcNAc(b1-2)Man(a1-3)[Gal(b1-4)GlcNAc(b1-2)Man(a1-6)]Man(b1-4)GlcNAc(b1-4)GlcNAc
# How it was run: as §1
# [4] = target: Gal(b1-4)GlcNAc(b1-2)Man(a1-3)[Gal(b1-4)GlcNAc(b1-2)Man(a1-6)]Man(b1-4)GlcNAc(b1-4)[Fuc(a1-6)]GlcNAc
# How it was run: as §1
# [5] = target: Gal(b1-4)GlcNAc(b1-2)Man(a1-3)[Gal(b1-4)GlcNAc(b1-2)Man(a1-6)][Gal(b1-4)GlcNAc(b1-4)]Man(b1-4)GlcNAc(b1-4)[Fuc(a1-6)]GlcNAc
# How it was run: as §1
# [6] = target: Gal(b1-4)GlcNAc(b1-2)Man(a1-3)[Gal(b1-4)GlcNAc(b1-2)Man(a1-6)][GlcNAc(b1-4)]Man(b1-4)GlcNAc(b1-4)[Fuc(a1-6)]GlcNAc
# How it was run: as §1
# [7] = target: Gal(b1-4)GlcNAc(b1-2)Man(a1-3)[GlcNAc(b1-2)Man(a1-6)]Man(b1-4)GlcNAc(b1-4)GlcNAc
# How it was run: as §1
# [8] = target: Gal(b1-4)GlcNAc(b1-2)Man(a1-3)[GlcNAc(b1-4)][Gal(b1-4)GlcNAc(b1-2)Man(a1-6)]Man(b1-4)GlcNAc(b1-4)GlcNAc
# How it was run: as §1
# [9] = target: Gal(b1-4)GlcNAc(b1-2)Man(a1-3)[Man(a1-6)]Man(b1-4)GlcNAc(b1-4)GlcNAc
# How it was run: as §1
# [10] = target: Gal(b1-4)GlcNAc(b1-2)Man(a1-6)Man(b1-4)GlcNAc(b1-4)GlcNAc
# How it was run: as §1
# [11] = target: Gal(b1-4)GlcNAc(b1-2)Man(a1-6)[GlcNAc(b1-2)Man(a1-3)]Man(b1-4)GlcNAc(b1-4)GlcNAc
# How it was run: as §1
# [12] = target: Gal(b1-4)GlcNAc(b1-2)Man(a1-6)[Man(a1-3)]Man(b1-4)GlcNAc(b1-4)GlcNAc
# How it was run: as §1
# [13] = target: Gal(b1-4)GlcNAc(b1-2)[Gal(b1-4)GlcNAc(b1-4)]Man(a1-3)[Gal(b1-4)GlcNAc(b1-2)Man(a1-6)]Man(b1-4)GlcNAc(b1-4)GlcNAc
# How it was run: as §1
# [14] = target: Gal(b1-4)GlcNAc(b1-2)[Gal(b1-4)GlcNAc(b1-4)]Man(a1-3)[Gal(b1-4)GlcNAc(b1-2)[Gal(b1-4)GlcNAc(b1-6)]Man(a1-6)]Man(b1-4)GlcNAc(b1-4)GlcNAc
# How it was run: as §1
# [15] = target: Gal(b1-4)GlcNAc(b1-2)[Gal(b1-4)GlcNAc(b1-4)]Man(a1-3)[GlcNAc(b1-4)][Gal(b1-4)GlcNAc(b1-2)Man(a1-6)]Man(b1-4)GlcNAc(b1-4)GlcNAc
# How it was run: as §1
# [16] = target: Gal(b1-4)GlcNAc(b1-2)[Gal(b1-4)GlcNAc(b1-4)]Man(a1-3)[GlcNAc(b1-4)][Gal(b1-4)GlcNAc(b1-2)[Gal(b1-4)GlcNAc(b1-6)]Man(a1-6)]Man(b1-4)GlcNAc(b1-4)GlcNAc
# How it was run: as §1
# [17] = target: Gal(b1-4)GlcNAc(b1-2)[Gal(b1-4)GlcNAc(b1-6)]Man(a1-6)[Gal(b1-4)GlcNAc(b1-2)Man(a1-3)]Man(b1-4)GlcNAc(b1-4)GlcNAc
# How it was run: as §1
# [18] = target: Gal(b1-4)GlcNAc(b1-2)[Gal(b1-4)GlcNAc(b1-6)]Man(a1-6)[Gal(b1-4)GlcNAc(b1-2)Man(a1-3)]Man(b1-4)GlcNAc(b1-4)[Fuc(a1-6)]GlcNAc
# How it was run: as §1
# [19] = target: Gal(b1-4)GlcNAc(b1-2)[Gal(b1-4)GlcNAc(b1-6)]Man(a1-6)[GlcNAc(b1-4)][Gal(b1-4)GlcNAc(b1-2)Man(a1-3)]Man(b1-4)GlcNAc(b1-4)GlcNAc
# How it was run: as §1
# [20] = target: Gal(b1-4)GlcNAc(b1-2)[Gal(b1-4)GlcNAc(b1-6)]Man(a1-6)[GlcNAc(b1-4)][Gal(b1-4)GlcNAc(b1-2)[Gal(b1-4)GlcNAc(b1-4)]Man(a1-3)]Man(b1-4)GlcNAc(b1-4)[Fuc(a1-6)]GlcNAc
# How it was run: as §1
# [21] = target: Gal(b1-4)GlcNAc(b1-3)Gal(b1-3)GalNAc
# How it was run: as §1
# [22] = target: Gal(b1-4)GlcNAc(b1-3)Gal(b1-3)GlcNAc
# How it was run: as §1
# [23] = target: Gal(b1-4)GlcNAc(b1-3)Gal(b1-4)Glc
# How it was run: as §1
# [24] = target: Gal(b1-4)GlcNAc(b1-3)Gal(b1-4)GlcNAc
# How it was run: as §1
# [25] = target: Gal(b1-4)GlcNAc(b1-3)Gal(b1-4)GlcNAc(b1-2)Man(a1-3)[Gal(b1-4)GlcNAc(b1-3)Gal(b1-4)GlcNAc(b1-2)Man(a1-6)]Man(b1-4)GlcNAc(b1-4)GlcNAc
# How it was run: as §1
# [26] = target: Gal(b1-4)GlcNAc(b1-3)Gal(b1-4)GlcNAc(b1-2)Man(a1-3)[Gal(b1-4)GlcNAc(b1-3)Gal(b1-4)GlcNAc(b1-2)Man(a1-6)]Man(b1-4)GlcNAc(b1-4)[Fuc(a1-6)]GlcNAc
# How it was run: as §1
# [27] = target: Gal(b1-4)GlcNAc(b1-3)Gal(b1-4)GlcNAc(b1-2)[Gal(b1-4)GlcNAc(b1-3)Gal(b1-4)GlcNAc(b1-6)]Man(a1-6)[Gal(b1-4)GlcNAc(b1-3)Gal(b1-4)GlcNAc(b1-2)Man(a1-3)]Man(b1-4)GlcNAc(b1-4)GlcNAc
# How it was run: as §1
# [28] = target: Gal(b1-4)GlcNAc(b1-3)Gal(b1-4)GlcNAc(b1-2)[Gal(b1-4)GlcNAc(b1-3)Gal(b1-4)GlcNAc(b1-6)]Man(a1-6)[Gal(b1-4)GlcNAc(b1-3)Gal(b1-4)GlcNAc(b1-2)Man(a1-3)]Man(b1-4)GlcNAc(b1-4)[Fuc(a1-6)]GlcNAc
# How it was run: as §1
# [29] = target: Gal(b1-4)GlcNAc(b1-3)Gal(b1-4)GlcNAc(b1-3)Gal(b1-4)GlcNAc
# How it was run: as §1
# [30] = target: Gal(b1-4)GlcNAc(b1-3)Gal(b1-4)GlcNAc(b1-3)Gal(b1-4)GlcNAc(b1-2)Man(a1-3)[Gal(b1-4)GlcNAc(b1-3)Gal(b1-4)GlcNAc(b1-3)Gal(b1-4)GlcNAc(b1-2)Man(a1-6)]Man(b1-4)GlcNAc(b1-4)GlcNAc
# How it was run: as §1
# [31] = target: Gal(b1-4)GlcNAc(b1-3)Gal(b1-4)GlcNAc(b1-3)Gal(b1-4)GlcNAc(b1-2)Man(a1-3)[Gal(b1-4)GlcNAc(b1-3)Gal(b1-4)GlcNAc(b1-3)Gal(b1-4)GlcNAc(b1-2)Man(a1-6)]Man(b1-4)GlcNAc(b1-4)[Fuc(a1-6)]GlcNAc
# How it was run: as §1
# [32] = target: Gal(b1-4)GlcNAc(b1-3)Gal(b1-4)GlcNAc(b1-3)Gal(b1-4)GlcNAc(b1-2)[Gal(b1-4)GlcNAc(b1-3)Gal(b1-4)GlcNAc(b1-3)Gal(b1-4)GlcNAc(b1-6)]Man(a1-6)[Gal(b1-4)GlcNAc(b1-3)Gal(b1-4)GlcNAc(b1-3)Gal(b1-4)GlcNAc(b1-2)Man(a1-3)]Man(b1-4)GlcNAc(b1-4)[Fuc(a1-6)]GlcNAc
# How it was run: as §1
# [33] = target: Gal(b1-4)GlcNAc(b1-3)Gal(b1-4)GlcNAc(b1-3)Gal(b1-4)GlcNAc(b1-3)Gal(b1-4)GlcNAc(b1-2)Man(a1-3)[Gal(b1-4)GlcNAc(b1-3)Gal(b1-4)GlcNAc(b1-3)Gal(b1-4)GlcNAc(b1-3)Gal(b1-4)GlcNAc(b1-2)Man(a1-6)]Man(b1-4)GlcNAc(b1-4)GlcNAc
# How it was run: as §1
binder,measurement,setting,value
diCBM40 CPF071 (Clostridium perfringens) (protein) MAHHHHHHVGTGSNDDDDKSPDPMLSSLGEYKDINLESSNASNITYDLEKYKNLDEGTIVVRFNSKDSKIQSLLGISNSKTKNGYFNFYVTNSRVGFELRNQKNEGNTQNGTENLVHMYKDVALNDGDNTVALKIEKNKGYKLFLNGKMIKEVKDTNTKFLNNIENLDSAFIGKTNRYGQSNEYNFKGNIGFMNIYNEPLGDDYLLSKTGETKALNGSELGSGSGLSSLGEYKDINLESSNASNITYDLEKYKNLDEGTIVVRFNSKDSKIQSLLGISNSKTKNGYFNFYVTNSRVGFELRNQKNEGNTQNGTENLVHMYKDVALNDGDNTVALKIEKNKGYKLFLNGKMIKEVKDTNTKFLNNIENLDSAFIGKTNRYGQSNEYNFKGNIGFMNIYNEPLGDDYLLSKTGETK,glycan array binding signal (z-score),Gal(b1-4)Glc,-0.329
same,glycan array binding signal (z-score),Gal(b1-4)Glc6S,-0.085
same,glycan array binding signal (z-score),Gal(b1-4)GlcNAc,-0.318
same,glycan array binding signal (z-score),[1],-0.304
same,glycan array binding signal (z-score),Gal(b1-4)GlcNAc(b1-2)Man,-0.337
same,glycan array binding signal (z-score),[2],-0.331
same,glycan array binding signal (z-score),[3],-0.308
same,glycan array binding signal (z-score),[4],-0.309
same,glycan array binding signal (z-score),[5],-0.322
same,glycan array binding signal (z-score),[6],-0.322
same,glycan array binding signal (z-score),[7],-0.306
same,glycan array binding signal (z-score),[8],-0.28
same,glycan array binding signal (z-score),[9],-0.257
same,glycan array binding signal (z-score),[10],-0.328
same,glycan array binding signal (z-score),[11],-0.319
same,glycan array binding signal (z-score),[12],-0.257
same,glycan array binding signal (z-score),[13],0.035
same,glycan array binding signal (z-score),[14],-0.314
same,glycan array binding signal (z-score),[15],-0.246
same,glycan array binding signal (z-score),[16],-0.234
same,glycan array binding signal (z-score),[17],-0.16
same,glycan array binding signal (z-score),[18],-0.301
same,glycan array binding signal (z-score),[19],-0.246
same,glycan array binding signal (z-score),[20],-0.035
same,glycan array binding signal (z-score),[21],-0.32
same,glycan array binding signal (z-score),[22],-0.132
same,glycan array binding signal (z-score),[23],-0.268
same,glycan array binding signal (z-score),[24],-0.344
same,glycan array binding signal (z-score),[25],-0.322
same,glycan array binding signal (z-score),[26],-0.21
same,glycan array binding signal (z-score),[27],0.015
same,glycan array binding signal (z-score),[28],-0.122
same,glycan array binding signal (z-score),[29],-0.288
same,glycan array binding signal (z-score),[30],0.154
same,glycan array binding signal (z-score),[31],-0.245
same,glycan array binding signal (z-score),[32],0.214
same,glycan array binding signal (z-score),[33],-0.171
